The results in this text go back to patent US6365759B1, “Intermediate compounds for preparing macrocylcic analogs” (Eisai Co., Ltd., priority 1998, dated 2002).

This test deals with COLO 205 human colon cancer xenografts. As to conditions: sub-cutaneous xenografts in nude mice.

Read-outs that look alike come from different tables or passages of the source.

Regarding `CC[C@]1(O)C[C@@H]2CN(CCc3c([nH]c4ccccc34)[C@@](C(=O)OC)(c3cc4c(cc3OC)N(C)[C@H]3[C@@](O)(C(=O)OC)[C@H](OC(C)=O)[C@]5(CC)C=CCN6CC[C@]43[C@@H]65)C2)C1` [Vinblastine, reference compound], the “in vivo anticancer activity (cancer growth inhibition)” value is “inactive” (0.3 mg/kg) and “inactive” (1 mg/kg, FIG. 5).

As for `CC[C@]1(O)C[C@H]2CN(CCc3c([nH]c4ccccc34)[C@@](C(=O)OC)(c3cc4c(cc3OC)N(C=O)[C@H]3[C@@](O)(C(=O)OC)[C@H](OC(C)=O)[C@]5(CC)C=CCN6CC[C@]43[C@@H]65)C2)C1` [Vincristine, reference compound], the “in vivo anticancer activity (cancer growth inhibition)” value is “moderate growth inhibition” (0.3 mg/kg) and “substantial cancer growth inhibitory activity” (1 mg/kg, FIG. 5).
